Test results reported in PMC10214851.
Results are given in words; binding and its absence hold for the method and conditions named. In cells and extracts the contact can be indirect. Some results given as binding are weak or reduced against the parent protein; the word gives no strength.

T1: Cqd1–3xHA (S. cerevisiae) (UniProt Q02981)
T1 sequence: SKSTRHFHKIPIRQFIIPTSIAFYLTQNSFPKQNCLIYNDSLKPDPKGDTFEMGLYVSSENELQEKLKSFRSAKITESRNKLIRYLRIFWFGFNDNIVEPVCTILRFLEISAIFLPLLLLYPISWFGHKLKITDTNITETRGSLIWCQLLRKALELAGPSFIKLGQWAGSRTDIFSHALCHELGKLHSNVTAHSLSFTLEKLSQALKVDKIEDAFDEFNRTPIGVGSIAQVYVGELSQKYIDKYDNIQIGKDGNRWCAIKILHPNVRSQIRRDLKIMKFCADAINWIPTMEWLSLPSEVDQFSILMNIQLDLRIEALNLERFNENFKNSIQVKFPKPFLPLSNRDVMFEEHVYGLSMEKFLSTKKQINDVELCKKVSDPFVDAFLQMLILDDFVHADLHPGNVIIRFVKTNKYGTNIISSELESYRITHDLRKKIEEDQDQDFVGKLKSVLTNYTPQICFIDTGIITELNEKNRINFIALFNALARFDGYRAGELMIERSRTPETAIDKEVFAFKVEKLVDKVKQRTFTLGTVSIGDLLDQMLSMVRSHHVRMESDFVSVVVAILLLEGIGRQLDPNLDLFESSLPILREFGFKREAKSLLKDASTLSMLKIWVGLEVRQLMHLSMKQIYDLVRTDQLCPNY

T2: Mic10–3xHA (S. cerevisiae) (UniProt Q96VH5)
T2 sequence: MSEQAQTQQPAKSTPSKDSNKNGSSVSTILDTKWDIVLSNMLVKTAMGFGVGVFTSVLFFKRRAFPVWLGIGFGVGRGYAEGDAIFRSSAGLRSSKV

T3: Mic60–3xHA (S. cerevisiae) (UniProt P36112)
T3 sequence: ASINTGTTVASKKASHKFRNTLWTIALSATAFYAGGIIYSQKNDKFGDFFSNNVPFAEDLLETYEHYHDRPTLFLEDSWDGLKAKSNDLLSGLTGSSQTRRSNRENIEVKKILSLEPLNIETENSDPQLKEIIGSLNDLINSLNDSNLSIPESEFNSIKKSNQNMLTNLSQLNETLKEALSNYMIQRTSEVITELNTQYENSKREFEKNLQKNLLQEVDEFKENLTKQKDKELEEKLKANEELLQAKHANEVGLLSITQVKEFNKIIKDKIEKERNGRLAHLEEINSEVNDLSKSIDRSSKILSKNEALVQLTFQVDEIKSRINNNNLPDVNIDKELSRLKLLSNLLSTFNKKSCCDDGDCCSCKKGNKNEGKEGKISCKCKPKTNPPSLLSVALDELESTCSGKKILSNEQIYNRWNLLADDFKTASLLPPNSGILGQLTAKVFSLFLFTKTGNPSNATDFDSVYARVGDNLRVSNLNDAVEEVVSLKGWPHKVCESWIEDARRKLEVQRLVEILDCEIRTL

T4: Om14–3xHA (S. cerevisiae) (UniProt P38325)
T4 sequence: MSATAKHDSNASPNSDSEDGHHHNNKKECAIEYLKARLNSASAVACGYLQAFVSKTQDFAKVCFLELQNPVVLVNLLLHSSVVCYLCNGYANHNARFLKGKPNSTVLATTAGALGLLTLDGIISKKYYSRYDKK

B1: Cqd1–3xHA (protein, UniProt Q02981 16-657)
chain: T1 sequence
B2: Cqd1 (protein, UniProt Q02981 16-657)
chain: T1 sequence
B3: Om45 (protein, UniProt P16547 1-393)
chain: MSSRIIVGSAALAAAITASIMVREQKAKGQRREGNVSAYYNGQEYGSSAPPQLGKLHNIKQGIKEDALSLKDALLGVSQKAREEAPKVTKRVISPEEDAQTRKQLGQKAKDSSSQSIFNWGFSEAERRKAIAIGEFDTAKKRFEEAVDRNEKELLSTVMREKKAALDRASIEYERYGRARDFNELSDKLDQQERNSNPLKRLLKNNTGDANTEEAAARSVQGWGDTAQEFGREELEEAKRNASSEPSEAQKRLDELKKIKEKGWFGYNKGEQSEQQIAERVARGLEGWGETAAQLSKDEMDDLRWNYENSKKQLDKNVSDAMDSLSKAKEDLKQYGSHWWSGWTSKVDNDKQALKDEAQKKYDEALKKYDEAKNKFKEWNDKGDGKFWSSKKD
B4: Mic10 (protein, UniProt Q96VH5 1-97)
chain: T2 sequence
B5: Mic60 (protein, UniProt P36112 18-540)
chain: T3 sequence

Key:
Experiment in all cases: co-IP; isolated yeast mitochondria lysed in IP buffer (50 mM Tris-HCl pH 7.4, 50 mM NaCl) with 1% (w/v) digitonin and 1 mM PMSF; cleared lysate on anti-HA agarose beads for 2 h; bound proteins eluted with SDS sample buffer, SDS-PAGE and immunoblotting; baits also in Δom14, Δpor1 and Δmic60 backgrounds
[1] = biological target: T1, Cqd1–3xHA (S. cerevisiae)
[2] = biological target: T2, Mic10–3xHA (S. cerevisiae)
[3] = biological target: T3, Mic60–3xHA (S. cerevisiae)
[4] = biological target: T4, Om14–3xHA (S. cerevisiae)
[5] = biological target: Por1–3xHA (S. cerevisiae) (UniProt P04840)

Binder | binding [1] | binding [5] | also measured
B1 | binds | – | –
B2 | – | binds | binding [2]: no binding; binding [3]: no binding; binding [4]: binds
B3 | – | binds | –
B4 | no binding | – | –
B5 | no binding | – | –
